Data on 53 molecules can be found in PubChem BioAssay AID1346428 (National Center for Advancing Translational Sciences (NCATS), 2018).

“And” between values parts separate entries of the source, which are not always exact repeats. Identical values can stand only once. The campaign covered roughly 48,000 compounds. About 1,200 (2.5%) were called active. Inconclusive results (about 2%) are left out.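 Rule for the calls: active = activation of at least 60% and not above a set upper limit (about 1 call in 100 departs from these limits); inconclusive = activation of 40% to 60%, or above that upper limit; inactive = activation under 40%.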 The list shows a part of the results.

The target of this test is Probable G-protein coupled receptor 32 (Homo sapiens) (UniProt O75388). Nature of the test: qHTS for Agonists of Human Resolvin D1 Receptor DRV1. Note: 0% is about no effect. As to conditions: CHO-K1 GPR32 beta-arrestin PathHunter luminescence, 90 min; at 76.9 µM; hits give high values; zero percent set by DMSO-only wells. Put shortly: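 PathHunter beta-arrestin recruitment in CHO-K1 cells stably expressing ProLink-tagged GPR32. Cells were exposed to compound for 90 min at 37 C, then chemiluminescence was read after 1 h detection at ambient temperature; DMSO served as basal control.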
UniProt O75388, sequence (O75388 whole entry, looked up): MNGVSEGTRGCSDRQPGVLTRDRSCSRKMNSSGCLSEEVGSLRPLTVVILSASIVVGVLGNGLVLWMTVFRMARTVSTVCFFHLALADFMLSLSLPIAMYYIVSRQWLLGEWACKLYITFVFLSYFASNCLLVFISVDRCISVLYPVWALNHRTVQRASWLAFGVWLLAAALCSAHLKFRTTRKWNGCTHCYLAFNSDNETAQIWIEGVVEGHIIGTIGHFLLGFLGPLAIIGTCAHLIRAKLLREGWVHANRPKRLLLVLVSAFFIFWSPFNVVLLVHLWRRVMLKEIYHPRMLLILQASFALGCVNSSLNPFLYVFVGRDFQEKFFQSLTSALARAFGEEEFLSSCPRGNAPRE
(In general: qHTS replaces the single test concentration by a dilution series.)
`CCCc1cc(C(=O)Nc2c(C)nn(Cc3ccc(Cl)c(Cl)c3)c2C)no1`: the activation was inactive: 38%.
Turning to `CCCCCCNC(=O)n1cc(F)c(=O)[nH]c1=O`, the activation is inactive: -6.11%.
On to `CCc1ccc(C2CC(=O)Oc3c2c(=O)n(C)c2ccccc32)cc1` (stereo not drawn), for which the activation was inactive: -3.78%.
In the case of `COc1ccc(N(C)C(=O)c2cc(S(=O)(=O)N3CCc4ccccc43)cn2C)c(OC)c1`, the activation is inactive: -14.3%.
`Cc1cccc(-c2nc(C(N)=O)c3c(n2)n(-c2ccc4c(c2)OCO4)c(=O)n3C)c1`: the activation is inactive: -8.44%.
To `CCCCc1ccc(NC(=O)C2(C)Cc3ccccc3C(=O)O2)cc1` (stereo not drawn) belongs inactive: 41.2%.
For `COc1ccc(CNC(=O)Cn2nc(C)c3c(C)n(-c4ccccc4)nc3c2=O)cc1OC` the value was inactive: -25.2%.
Take `Cc1ccc(CN(Cc2ccco2)c2cnc(S(C)(=O)=O)nc2C(=O)Nc2ccccc2Br)o1`: the activation was inactive: -22.6%.
For `CCCCC(CC)CN=C(N)NC(N)=NCCCCCCN=C(N)NC(N)=NCC(CC)CCCC` (stereo not drawn) the value was inactive: 1.39%; for `Cn1c(=O)c2nc(SCC(=O)Nc3ccc(Cl)c(Cl)c3)n(C)c2n(C)c1=O`, inactive: 14.7%.
As for `Cc1cc(C)cc(NC(=O)Cn2cc(C(=O)c3ccccc3)c(=O)c3ccc(C)nc32)c1`, the activation was inactive: -10.1%.
As to `CCOC(=O)CSc1nc2ccc(NC(=O)COc3ccccc3C)cc2s1`, the activation is active: 75.2%.
As for `COC(=O)CN1C(=O)C(O)(CC(=O)c2ccc(F)cc2)c2ccccc21` (stereo not drawn), the activation was inactive: -7.12%.
Regarding `Cc1ccc(-n2c3nc(=O)[nH]c(=O)c-3cc3c(C)nn(-c4ccccc4)c32)c(C)c1`, the activation was inactive: -7.38%.
As for `Cc1ccc(Cl)cc1NC(=O)CCS(=O)(=O)c1ccc2c(c1)n(C)c(=O)c(=O)n2C`, the activation is inactive: -18.5%.
In the case of `CCN(CC)CCNC(=O)COc1ccc(Cl)cc1`, the activation was inactive: 11.7%.
To `Cc1nn(CC(=O)N2CCCCC2)c(=O)c2cc3occc3n12` belongs inactive: 0.997%.
With `O=C(Nc1ccc(Cl)cc1)c1cc2c(-c3ccccc3)nn(-c3ccccc3)c2s1`, the activation was inactive: -5.41%.
To `CC(NC(=O)C1CCN(S(=O)(=O)c2ccc3nc4c(c(C(=O)O)c3c2)CCCC4)CC1)c1ccccc1` (stereo not drawn) belongs inactive: -61.6%.
`CC(C)Cn1cc(NC(=O)NCc2ccccc2Cl)c2ccccc2c1=O`: the activation was inactive: -59.4%.
Turning to `COc1cccc(NC(=O)c2ccc3nc(Cc4ccccc4)oc3c2)c1`, the activation was inactive: 2.06%.
On to `COc1ccc(-c2cc(C(=O)Nc3sc4c(c3C#N)CCCC4)no2)cc1OC`, for which the activation was inactive: 8.99%.
On to `O=C(CSc1oc(-c2ccccc2)nc1S(=O)(=O)c1ccccc1)c1ccccc1`, for which the activation was inactive: -3.21%.
To `Cc1ccc(NC(=O)CCS(=O)(=O)c2cc(Br)cc3c2N(C(=O)C2CC2)CC3)cc1` belongs inactive: 3.19%; to `CCc1ccc(-n2c(SCc3cccc(F)c3)nc3[nH]ncc3c2=O)cc1`, inactive: -18.1%.
As for `CC(C)CCN1C(=O)c2ccccc2CC1(C)C(=O)NC1CCCCC1` (stereo not drawn), the activation was inactive: -24.7%.
For `CCC(=O)Nc1ccccc1C(=O)OCc1cc(=O)n2cc(C)sc2n1` the value was inactive: -25.5%; for `COc1ccc(OC)c(NC(=O)Cn2c(CCC(=O)O)ccc2-c2ccccc2)c1`, inactive: -18.2%.
On to `CCCN1CCN(C(=O)Cn2ncc3c4ccccc4n(Cc4cccc(Cl)c4)c3c2=O)CC1`, for which the activation was inactive: -9.37%.
Consider `CC1CC(=O)N(CC(=O)Nc2ccc(OC(F)(F)F)cc2)c2ccccc2S1` (stereo not drawn), for which the activation is inactive: 38%.
Take `Cc1ccc(CCNC(=O)c2cc3cc(S(=O)(=O)N4CCCCC4)ccc3n2C)cc1`: the activation was inactive: -15.5%.
To `CCOc1ccc(-n2nc3ccc(NC(=O)c4ccc(C)cc4C)cc3n2)cc1` belongs inactive: 25.7%; to `Cc1cccc(N(C)C(=O)c2cc3c(=O)oc4ccc(C)cc4c3s2)c1`, inactive: -5.35%.
As for `O=C(Nc1c(C(=O)N2CCN(c3ccccc3)CC2)oc2ccccc12)c1ccccc1F`, the activation was inactive: -9.1%.
For `COC(=O)c1ccc(C(=O)OC)c(NC(=O)c2cnn3c(C(F)F)cc(-c4ccc(C)cc4)nc23)c1` the value was inactive: 6.32%; for `COc1ccc(Cl)cc1C(=O)NCCc1ccc(S(=O)(=O)NC(=O)NC2CCCCC2)cc1`, inactive: 18.7% and inactive: -4.54%.
To `CCN1CCN(CCCNC(=O)c2cnn(-c3ccc(OC)cc3)c2C2CCN(C(=O)OC(C)(C)C)CC2)CC1` belongs inactive: -4.73%.
With `CCN1CCOC(=O)C1CC(=O)Nc1cc(Cl)ccc1C` (stereo not drawn), the activation is inactive: 6.85%.
For the molecule `CC1=Nc2cc(C(=O)NC3CCCC3)ccc2Sc2ccc(Cl)cc21`, the activation was inactive: -6.99%.
For the molecule `CCOC(=O)c1ccc(Nc2nc3ccccc3n3c(C)nnc23)cc1`, the activation is inactive: 1.67%.
As to `CCOC(=O)c1cccc(NC(=O)CC2C(=O)N(c3ccc(F)cc3)C(=O)N2Cc2cccc(OC)c2)c1` (stereo not drawn), the activation is inactive: -10.7%.
Consider `CCOc1ccc(-c2noc(CSc3nnc(Cc4ccccc4)n3-c3ccc(F)cc3)n2)cc1`, for which the activation is inactive: -26.8%.
In the case of `CCOCCc1nn2c(=O)cc(COC(=O)c3ccccc3NC(=O)CC(C)C)nc2s1`, the activation is inactive: -12.5%.
As for `COc1ccc(N(C)S(=O)(=O)c2ccc3c(c2)n(C)c(=O)c(=O)n3C)cc1`, the activation is inactive: -1.28%.
With `COc1cccc(C(=O)Nc2c3c(nn2-c2ccc(C)cc2C)CS(=O)(=O)C3)c1OC`, the activation is inactive: -7.25%.
On to `Cc1cccc(N2CCN(c3ncnc4c3cnn4-c3ccc(Cl)cc3)CC2C)c1` (stereo not drawn), for which the activation is inactive: 25.2%.
For `COC(=O)c1scc(-c2ccc(C)cc2)c1S(=O)(=O)N1CCN(c2ccccc2F)CC1`, the activation is inactive: -9.9%.
Turning to `O=C(Cn1c(-c2cccs2)cc2cc(F)ccc21)N1CCCCC1`, the activation is inactive: -12.1%.
Regarding `Cc1ccc(C(=O)c2sc(Nc3ccc(F)cc3)nc2N)c(C)c1`, the activation was inactive: -20.7%.
In the case of `CC1=C(c2ccc(C)cc2)S(=O)(=O)N(Cc2ccc(C(=O)NCc3ccccc3F)cc2)C1=O`, the activation was inactive: 3.83%.
Take `Cc1ccc2c(c1)C(C)(c1ccccc1)CC(C)(C)N2C(=O)c1ccc(F)cc1` (stereo not drawn): the activation is inactive: -14.1%.
With `COc1ccc(-c2nc(CNC(=O)NC3CCCCC3)c(C)o2)c(OC)c1`, the activation was inactive: 31.5%.
As for `O=C1CCCc2[nH]c(=O)c(-c3nc(-c4cccc([N+](=O)[O-])c4)cs3)cc21`, the activation is inactive: 18.9%.
